Among all 48,000 compounds or so, about 550 (1.1%) were called active. About 4% were inconclusive and are not listed. No stated cut-off is given here; in the data, active means potency below about 15 µM; inconclusive means mostly about 16 µM to 33 µM; inactive means weaker than that. The list shows a part of the results. Some results are limits rather than exact numbers.
Potency means the concentration at half of the fitted maximal effect.

Chain of UniProt P04062 (P04062 whole entry, looked up): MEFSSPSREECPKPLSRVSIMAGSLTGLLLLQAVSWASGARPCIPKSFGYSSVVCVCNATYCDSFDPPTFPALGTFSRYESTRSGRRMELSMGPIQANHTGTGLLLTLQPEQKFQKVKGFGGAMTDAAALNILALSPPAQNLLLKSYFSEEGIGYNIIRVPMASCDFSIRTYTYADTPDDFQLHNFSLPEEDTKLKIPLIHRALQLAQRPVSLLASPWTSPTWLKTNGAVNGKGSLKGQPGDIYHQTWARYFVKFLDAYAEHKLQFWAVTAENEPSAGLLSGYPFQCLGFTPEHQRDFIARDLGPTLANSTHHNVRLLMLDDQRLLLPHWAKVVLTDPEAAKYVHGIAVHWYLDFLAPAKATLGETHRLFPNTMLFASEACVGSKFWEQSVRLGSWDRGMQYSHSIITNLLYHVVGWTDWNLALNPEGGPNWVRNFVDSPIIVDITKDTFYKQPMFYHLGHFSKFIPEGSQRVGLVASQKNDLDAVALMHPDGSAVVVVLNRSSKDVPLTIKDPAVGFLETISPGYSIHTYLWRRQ

The target in the assay is Lysosomal acid glucosylceramidase (Homo sapiens) (UniProt P04062). The experiment in a line: Glucocerebrosidase.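 Further: the screen sought inhibitors.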 As to conditions: purified enzyme, resorufin glucoside fluorescence (screen aimed at inhibitors), 20 min. An outline of the steps:
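Compounds titrated against 0.2 nM normal enzyme, 30 uM resorufin beta-D-glucopyranoside substrate, citrate/phosphate buffer with taurocholate and tween-20, pH 5.9. Reaction ran 20 min at room temperature; fluorescence (Ex 548/Em 600) gave AC50.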
Regarding `CCN(CC)CCNC(=O)C1c2cc(OC)c(OC)cc2C(=O)N2CCc3ccccc3C12` (stereo not drawn), the Potency is inactive: > 76.9 µM.

For the compound `Cc1nc2nc(-c3cccnc3)[nH]n2c(=O)c1Cc1ccccc1`, the Potency is inactive: > 76.9 µM.

As to `O=C(Nc1ccccc1)c1cccc(N2C(=O)CCC2=O)c1`, the Potency is inactive: > 76.9 µM.

Turning to `CC1CCCC(NC(=O)CSc2ncccc2C(=O)O)C1C` (stereo not drawn), the Potency was inactive: > 76.9 µM.

For `COc1cccc(NC2=NC3(CCCCC3)N=C(N)N2)c1`, the Potency is inactive: > 76.9 µM.

Turning to `O=C(c1ccco1)N1CCN(CC(O)COc2ccc3oc4ccccc4c3c2)CC1` (stereo not drawn), the Potency was inactive: > 76.9 µM.

Take `COc1ccc(-n2nnnc2SCC(=O)Nc2ccc3c(c2)OCCO3)c(OC)c1`: the Potency was inactive: > 76.9 µM.

As for `CC1Cc2ccccc2N1C(=O)CSc1nc2ccccc2n1CC(=O)N1CCOCC1` (stereo not drawn), the Potency was inactive: > 76.9 µM.

With `O=C(Nc1cccc(C(=O)N2CCCCCC2)c1)c1ccco1`, the Potency was inactive: > 76.9 µM.

As for `CCOC(=O)c1cn(CC)c2cc(N3CCSCC3)c(F)cc2c1=O`, the Potency is inactive: > 76.9 µM.

For `CCS(=O)(=O)Nc1ccc(-c2nnc(SCC(=O)OC)o2)cc1`, the Potency was inactive: > 76.9 µM.

On to `O=C(OCC(=O)N1CCN(C(=O)c2ccco2)CC1)c1cc(-c2ccc(F)cc2)nc2ccccc12`, for which the Potency is inactive: > 76.9 µM.

Take `CC1CC(=O)c2cnc(NCc3ccco3)nc2C1` (stereo not drawn): the Potency was inactive: > 76.9 µM.

With `COc1ccccc1C(=O)Nc1ccccn1`, the Potency is inactive: > 76.9 µM.

Take `COC(=O)c1cccc(Oc2nc(N3CCOCC3)nc(N3CCOCC3)n2)c1`: the Potency was inactive: > 76.9 µM.

As for `O=c1cc(-c2ccccc2)nc(N2CCN(Cc3ccc4c(c3)OCO4)CC2)[nH]1`, the Potency was inactive: > 76.9 µM.

Regarding `Cc1ccc2cc3c(NC(=O)c4cccnc4)nn(C)c3nc2c1`, the Potency is inactive: > 76.9 µM.

On to `COc1ccccc1N(C)S(=O)(=O)c1ccc(C(=O)NC2=NCCS2)cc1`, for which the Potency was inactive: > 76.9 µM.

For `Cc1ccc(NC(=O)C2CC(=O)NC(N3CCc4ccccc43)=N2)cc1` (stereo not drawn), the Potency is inactive: > 76.9 µM.

`COc1ccc(OC)c(C2N(c3ccccn3)C(=O)C3CCCN32)c1` (stereo not drawn): the Potency was inactive: > 76.9 µM.

`CC1CC=C2C(C#N)=C(N)C(C#N)(C#N)C(c3cccs3)C2C1` (stereo not drawn): the Potency is active: 10.7 µM.

In the case of `CC(C)CCn1nc(C(=O)OC(C)C(=O)NC(N)=O)c2ccccc2c1=O` (stereo not drawn), the Potency is inactive: > 76.9 µM.

With `CCOC(=O)CNc1c(-c2ccc(Cl)cc2)nc2cnccn12`, the Potency entry is “inactive”.

Regarding `CC(=O)c1cccc(N(C(=O)c2ccco2)C(C(=O)NC2CCCC2)c2ccncc2)c1` (stereo not drawn), the Potency was inactive: > 76.9 µM.

Regarding `CC12CCC(=O)N1C(C(=O)O)Cc1c2[nH]c2ccccc12` (stereo not drawn), the Potency is inactive: > 76.9 µM.

Regarding `O=C(COc1ccccc1Cl)NC(=O)NC1CCCC1`, the Potency is inactive: > 76.9 µM.

As for `O=C(c1csc2ccccc12)n1cccn1`, the Potency was inactive: > 76.9 µM.

Regarding `COc1cccc(NC(=O)CSc2nc3c(c(-c4ccco4)c2C#N)CCCC3)c1`, the Potency is inactive: > 76.9 µM.

Turning to `Cc1cc(Nc2ccccc2)n(-c2ccccc2)n1`, the Potency is inactive: > 76.9 µM.

As for `CCOC(=O)N1CCN(C(=O)COc2cc(=O)n(C)c3ccccc23)CC1`, the Potency is inactive: > 76.9 µM.

With `COc1ccc(-n2c(SCC(=O)N3CCCCC3)nnc2-c2cccnc2)cc1`, the Potency was inactive: > 76.9 µM.

Take `Cc1c(CCC(=O)O)c(=O)oc2cc3occ(-c4ccc(F)cc4)c3cc12`: the Potency is inactive: > 76.9 µM.

For `O=C(c1noc2c1CCc1ccccc1-2)N1CCc2ccccc2C1`, the Potency was inactive: > 76.9 µM.

With `Cc1ccc2c(n1)sc1c(N)ncnc12`, the Potency is inactive: > 76.9 µM.

As to `CCOc1ccc(NC(=O)CN2CCN(CC(=O)Nc3ccc(F)c(F)c3)CC2)cc1`, the Potency is inactive: > 76.9 µM.

For `CCOc1cc(CNc2ccc3[nH]c(=O)[nH]c3c2)ccc1OCC(=O)NC(C)(C)C`, the Potency is inactive: > 76.9 µM.

For `COc1ccc(F)cc1S(=O)(=O)NC1CCCCCC1`, the Potency is inactive: > 76.9 µM.

As for `CCOC(=O)N1CCC(NC(=O)c2cnn3c2NC(c2ccco2)CC3C(F)(F)F)CC1` (stereo not drawn), the Potency is inactive: > 76.9 µM.

Turning to `CCOC(=O)c1c(NC(=O)CSc2nc3c(c(=O)n(C)c(=O)n3C)n2CC)sc(C)c1C`, the Potency was inactive: > 76.9 µM.

Turning to `COc1ccc(Oc2c(C)oc3c(CN(C)C)c(O)ccc3c2=O)cc1`, the Potency is inactive: > 76.9 µM.

For the compound `COc1ccc(CCNC(=O)C2CCN(S(=O)(=O)N3CCCCCC3)CC2)cc1OC`, the Potency was inactive: > 76.9 µM.

In the case of `CNS(=O)(=O)c1cccc(C(=O)OCC(=O)Nc2ccccc2OC(F)F)c1`, the Potency was inactive: > 76.9 µM.

For the compound `CCCS(=O)(=O)N1CCC(C(=O)NCCCN(CC)c2cccc(C)c2)CC1`, the Potency is inactive: > 76.9 µM.

Take `CNS(=O)(=O)c1cc(OC)ccc1OC`: the Potency was inactive: > 76.9 µM.

For `COC(=O)C1C(=O)C2=C(CC1C)NC(C)=C(C(=O)OC(C)C)C2c1ccc(OC)c(O)c1` (stereo not drawn), the Potency was inactive: > 76.9 µM.

Consider `O=C(c1cccc(C(F)(F)F)c1)N1CCN(C2CCCCC2)CC1`, for which the Potency was inactive: > 76.9 µM.

`CC(=O)Nc1nc2c(c3c1c(=O)oc1ccccc13)CCCCC2`: the Potency is inactive: > 76.9 µM.

Regarding `Cc1cccc(C)c1NC(=O)Cn1cnc2c(=O)n(C)c(=O)n(C)c21`, the Potency is inactive: > 76.9 µM.

As to `COc1cccc(C2C(C(=O)c3cc4ccccc4o3)=C(O)C(=O)N2c2cc(C)on2)c1OC` (stereo not drawn), the Potency is inactive: > 76.9 µM.

Regarding `Cc1cc(C)c2cc(C#N)c(N3CCCC3)nc2c1`, the Potency was inactive: > 76.9 µM.

As to `C1CCC(OCCN2CCN(CCOC3CCCCC3)CC2)CC1`, the Potency is inactive: > 76.9 µM.

For `COc1ccccc1N1CCN(CC(=O)c2c(C)[nH]c3ccccc23)CC1`, the Potency is inactive: > 76.9 µM.

As for `CCOC(=O)Nc1ccc2c(c1)N(C(=O)CCN1CCN3CCCC3C1)c1ccccc1CC2` (stereo not drawn), the Potency was inactive: > 76.9 µM.

For `Cc1ccc(C)n1-n1cnc2sc(-c3ccccc3)cc2c1=O`, the Potency was inactive: > 76.9 µM.

Regarding `CCN(CC)CC(=O)Nc1ccc(C)cc1Br`, the Potency is inactive: > 76.9 µM.

For `COc1cc(C(=O)NCCC(=O)NCCCN2CCCCC2)cc(OC)c1OC`, the Potency was inactive: > 76.9 µM.

Regarding `O=C(CN1CCN(c2ncccn2)CC1)N1CCN(C(c2ccccc2)c2ccccc2)CC1`, the Potency was inactive: > 76.9 µM.

On to `CCOc1ccc(-c2ncncc2-c2ccc(OC)cc2)c(O)c1`, for which the Potency was inactive: > 76.9 µM.

`O=C(NC1CCC(C(=O)O)CC1)OCc1ccccc1` (stereo not drawn): the Potency is inactive: > 76.9 µM.

As for `Cc1ccc(OCC(=O)Nc2ccc3c(c2)nc2n3CCOC2)cc1`, the Potency result was “inactive”.

With `CCOc1ccc(-c2[nH]ncc2-c2ccc(OC)c(OC)c2)c(O)c1`, the Potency is inactive: > 76.9 µM.

For the compound `CCOc1cc(N2CCOCC2)c(OCC)cc1NC1=NCCCCC1`, the Potency was inactive: > 76.9 µM.

In the case of `CCOc1ccc(N2CCCn3c2nc2c3c(=O)n(CCc3ccccc3)c(=O)n2C)cc1`, the Potency was inactive: > 76.9 µM.

Take `Cc1ccc(N=Cc2nc(-c3ccco3)oc2O)cc1`: the Potency was inactive: > 76.9 µM.

Consider `COc1ccc(-c2csc(N3CCN(Cc4ccc5c(c4)OCO5)CC3)n2)cc1`, for which the Potency is inactive: > 76.9 µM.

Consider `O=C(Nc1ccc(Br)cc1)C1CCCN1S(=O)(=O)c1cccs1` (stereo not drawn), for which the Potency was inactive: > 76.9 µM.

With `Cc1[nH]c(=O)[nH]c(=O)c1CSc1nnc([C@H](CC(C)C)NC(=O)OC(C)(C)C)o1`, the Potency is inactive: > 76.9 µM.

Take `CN1CCc2c(sc3c2C(=O)NC(/C=C/c2ccco2)N3)C1` (stereo not drawn): the Potency is inactive: > 76.9 µM.

Regarding `CCOC(=O)c1ccc(N(CC(=O)NC2CCCC2)C(=O)CNC(=O)c2ccco2)cc1`, the Potency was inactive: > 76.9 µM.

In the case of `CCOc1ccc(C(=O)N2CCC(C(=O)c3ccc4c(c3)OCCO4)CC2)cc1`, the Potency was inactive: > 76.9 µM.

For the compound `CC(C)(C)NC(=O)c1ccc(COc2ccccc2Br)o1`, the Potency was inactive: > 76.9 µM.

Turning to `CS(=O)(=O)N1CCC(C(=O)N2CCc3ccccc3C2)CC1`, the Potency was inactive: > 76.9 µM.

Regarding `Cn1cnnc1-c1cccc(NS(=O)(=O)c2ccc(N3CCCC3=O)cc2)c1`, the Potency was inactive: > 76.9 µM.

As to `Cc1ccc(Cn2c(=O)n(Cc3ccco3)c(=O)c3ccccc32)cc1`, the Potency is inactive: > 76.9 µM.

For `Cc1nnc(SCCn2c(N3CCC(C)CC3)nc3c2c(=O)n(C)c(=O)n3C)s1`, the Potency was inactive: > 76.9 µM.

For `C=C(C)C1Cc2c(C)nn(-c3ccccc3)c2C1` (stereo not drawn), the Potency is inactive: > 76.9 µM.

With `Cc1nnc(SCC(=O)N2c3ccccc3Sc3ccccc32)n1N`, the Potency was inactive: > 76.9 µM.

Take `CCCCn1c(SCC(=O)N2CC(C)CC(C)C2)nc2cc(S(N)(=O)=O)ccc21` (stereo not drawn): the Potency is inactive: > 76.9 µM.

Regarding `O=C(CCSc1nc(-c2ccco2)cc(C(F)(F)F)n1)N1CCCc2ccccc21`, the Potency was inactive: > 76.9 µM.

Regarding `O=C(c1ccccc1-c1ccccc1)N1CCN(c2ccccn2)CC1`, the Potency is inactive: > 76.9 µM.

As to `O=C(NCc1ccc(F)cc1)N[C@@H](Cc1ccccc1)C(=O)O`, the Potency was inactive: > 76.9 µM.

On to `CCOC(=O)c1cnc2c(C(=O)OC)cccc2c1NCCN1CCOCC1`, for which the Potency was inactive: > 76.9 µM.

Regarding `O=C(NC1CCCCC1)n1c(=O)oc2ccc(Cl)cc21`, the Potency was inactive: > 76.9 µM.

As to `COCCCN1C(=O)C(=O)/C(=C(/O)c2ccccc2)C1c1ccc2c(c1)OCO2` (stereo not drawn), the Potency was inactive: > 76.9 µM.

As for `Cc1cc(C)n(C(=O)c2ccc(C)c(S(=O)(=O)N3CCOCC3)c2)n1`, the Potency is inactive: > 76.9 µM.

As to `CCCc1nnc(NC(=O)CCCC(=O)O)s1`, the Potency is inactive: > 76.9 µM.

Turning to `O=C(Nc1ccc(Br)cc1Cl)Nn1cnnc1`, the Potency was inactive: > 76.9 µM.

`CCOC(=O)N1CC=C2C(C#N)=C(N)C(C#N)(C#N)[C@H](c3ccc(OCC)c(OCC)c3)[C@H]2C1`: the Potency was inactive: > 76.9 µM.
